Measured values reported in the RNAGym collection of RNA variant scans (doi:10.7554/elife.90254).
Read counts are not given, so values of variants with three or more changes are uncertain.

B1: OR4K15 (parent)
chain: GUUAACGGUCAUAGGCCAUGGAAACUAGGAGCACCAUUUCGCUGCCAGUGAAGAAAUGAACAAAGAAAAUCUGGGCCAGGCAGGCAUCAAAAGAAAUAGUCUUGCGCUCAACCAGAAAGUCUGUAAUCAUUUUAAGGGUA

Variants of: B1
Test: self-cleavage, relative activity (ratio to wild type); higher = more cleavage; in vitro, sequencing; the parent is a self-cleaving ribozyme

Row | Variant | self-cleavage
1 | U43C U102A A114G | 0.16
2 | U43C U57C U130C U132A | 0.59
3 | C45U A52U U72C U87C | 0.97
4 | A47G A60G A78G A89G U122A | 0.09
5 | A47G A63G A118G A126G U132C | 0.21
6 | U43C A47G A78G A118G | 0.03
7 | A47U A111U U127C | 0.03
8 | A47U A59G A96G A117G | 0.95
9 | A47G U72C A90G | 0.18
10 | A47G A82U A134G | 0.11
11 | A47U A51G U87A A92G U122C | 0.64
12 | U43C A52G U122C | 1.2
13 | A47U U70C U127C | 0.05
14 | A47G U103C A118G | 0.19
15 | A47G A56G A94G | 0.86
16 | U43C A54U A95G | 2.16
17 | C42U A62G U108A U131C | 0.01
18 | U43C A59G U87A U108C | 0.03
19 | U43C A96G A117G | 0.78
20 | A47G A86C U130G | 0.45
21 | A47G A64G A110G | 0.09

Row | Variant | self-cleavage
22 | G44A A60G A94U A111G A129U | 0.01
23 | U43A A78U A92G U100C | 1.82
24 | A47G U72A A118U | 0.08
25 | A47U C109A U130C | 0.14
26 | U43C U132C U133C | 1.48
27 | C42A A54U U100G | 1.03
28 | U43C A60G U122C | 0.47
29 | A47U U57A A60G A82U U102A | 0.2
30 | G41U A62U U130C | 0.43
31 | U43C A52G A95G U132C | 1.42
32 | G41A A91G A110G | 0.08
33 | U43C A82G A111G | 0.03
34 | A47G A52G A67G | 1.41
35 | U43A A64G U70A | 1.97
36 | A47U A56G A89U A117G | 1.11
37 | U43A A62U A78U C85U A89G U139C | 0.29
38 | U43C A69G C76A U132C | 0.09
39 | A47G A51G A68G A78G U108C | 0.02
40 | U43C G84C A114U | 0.01
41 | A47G A64G A82G C109A | 0.09
42 | U43C A111G A116G | 0.01

Row | Variant | self-cleavage
43 | A47U A66G U72A A126G A134G | 0.19
44 | U43C U49A G104A | 0.04
45 | G41U A82U U130C U132C | 0.1
46 | U43A U49C A96U U130C | 1.48
47 | G41A A78G U108A | 0.02
48 | U43A A68G U120C U130C | 0.97
49 | C45U A59U U120C | 0.65
50 | A47G U72A C105U G123C | 0.01
51 | U43C A55G U127C | 0.76
52 | U43A A59G A129G | 1.04
53 | G41U A51U A68U U102C A117G | 2.67
54 | U43A U87C U103A U127C | 0.09
55 | C45U A51G A59U A66U U130C | 1.77
56 | C42A A59G C71A A95G | 0.9
57 | U43C C45U A60G | 1.15
58 | A47G C77U U87A | 2.34
59 | A47U A56G A135G | 0.54
60 | U43C A56G A114G | 0.16
61 | A47U A66G A95G | 1.5
62 | A47U U70C A118G U122C | 0.08
63 | U43A A60G A82U A117G | 0.23

Row | Variant | self-cleavage
64 | A47U A67C A96G | 2.24
65 | C45G A47G A56G | 1.04
66 | C45U A66G A95U | 1.48
67 | A47G A92G A98G U132C | 0.45
68 | U43A G48U U122C | 1.14
69 | A47U U70A U72C U103A | 0.04
70 | U43C U102C A125G | 1.45
71 | U43C A96U A111G | 0.01
72 | U43A A95G A126G | 1.63
73 | U43A A60G U108C | 0.02
74 | U43A A52G U102A A110U | 0.91
75 | A47U A63U A135G | 1.09
76 | A47G A89G A117G | 1.7
77 | U43C A94G U124C U130C | 0.48
78 | U43A A62U G106U A116G | 0.01
79 | U43C A64G U100C C113U | 0.16
80 | A47U A62G G74U U122G | 0.24
81 | A47G A68G A69G | 0.88
82 | A47C A54G A117G | 2.72
83 | U43A A55G A117G | 1.62
